Results on 45 compounds are retold here after article PMC4336329 (PLoS ONE, 2015).

The structures appear in SMILES notation. Out of some 310,000 compounds screened, about 2,200 (0.71%) showed an effect of 50% or more. The effect is printed as a negative number. The list shows a part of the results.

human ether-à-go-go-related gene (hERG) potassium channel, sequence (Q12809 whole entry, looked up): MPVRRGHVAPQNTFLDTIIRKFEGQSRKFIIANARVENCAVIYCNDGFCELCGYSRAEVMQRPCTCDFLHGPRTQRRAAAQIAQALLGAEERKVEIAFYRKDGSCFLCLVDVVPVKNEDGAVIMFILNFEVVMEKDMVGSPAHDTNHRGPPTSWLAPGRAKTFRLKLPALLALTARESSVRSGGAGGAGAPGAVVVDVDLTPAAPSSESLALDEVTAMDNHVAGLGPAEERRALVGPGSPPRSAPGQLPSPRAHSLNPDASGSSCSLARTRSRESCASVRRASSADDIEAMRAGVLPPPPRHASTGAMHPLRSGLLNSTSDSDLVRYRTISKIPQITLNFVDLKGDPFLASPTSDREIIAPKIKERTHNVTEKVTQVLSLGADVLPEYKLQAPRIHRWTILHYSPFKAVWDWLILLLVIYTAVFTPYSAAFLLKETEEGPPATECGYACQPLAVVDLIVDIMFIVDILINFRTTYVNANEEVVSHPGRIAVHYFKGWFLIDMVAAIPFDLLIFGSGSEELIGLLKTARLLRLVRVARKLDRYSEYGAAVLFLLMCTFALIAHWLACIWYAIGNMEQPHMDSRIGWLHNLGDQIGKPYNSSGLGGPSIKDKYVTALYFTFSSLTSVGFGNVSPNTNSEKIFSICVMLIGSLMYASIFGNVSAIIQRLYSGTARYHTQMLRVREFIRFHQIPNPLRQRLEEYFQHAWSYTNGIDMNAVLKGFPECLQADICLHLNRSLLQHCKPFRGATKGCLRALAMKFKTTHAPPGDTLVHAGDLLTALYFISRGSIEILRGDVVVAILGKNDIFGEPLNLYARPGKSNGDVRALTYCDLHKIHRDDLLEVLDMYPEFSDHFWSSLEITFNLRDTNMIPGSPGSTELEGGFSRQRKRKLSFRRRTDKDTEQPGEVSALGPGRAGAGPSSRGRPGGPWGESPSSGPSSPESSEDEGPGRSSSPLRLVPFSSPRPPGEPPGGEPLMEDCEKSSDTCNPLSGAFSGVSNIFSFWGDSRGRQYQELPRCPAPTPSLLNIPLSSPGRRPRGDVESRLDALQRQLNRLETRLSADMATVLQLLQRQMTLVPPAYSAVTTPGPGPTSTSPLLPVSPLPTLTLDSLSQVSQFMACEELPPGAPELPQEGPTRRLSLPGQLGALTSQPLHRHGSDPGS

The test has as its target human ether-à-go-go-related gene (hERG) potassium channel (human, UniProt Q12809). Briefly: primary screen, population patch clamp on CHO cells stably expressing hERG.
With `CCn1nnnc1NC(=O)c1cccc(OC)c1`, the “hERG current change (%, negative = inhibition) at 1uM” value was determined as 4.7%.
Under `COc1ccc(Cn2c(SCC#N)nc3ccc(N4CCOCC4)cc3c2=O)cc1` stands 19.3%; under `CCOC(=O)CN1C(=O)C(CC)Oc2ccccc21` (stereo not drawn), -4.75%; under `COc1ccc(Cc2nnc(SCC(=O)Nc3ccc(C)cc3C)[nH]c2=O)cc1`, -7.38%.
Under `Cc1oc2cc(O)ccc2c(=O)c1-c1ccccc1` stands 6.99%.
`O=C(O)COc1ccc(Br)cc1/C=N\Nc1ccccn1`: the “hERG current change (%, negative = inhibition) at 1uM” value was 18.2%.
Under `NC(=O)C(c1ccc(Cl)cc1)c1ccc(Sc2ccc(Cl)cc2)nn1` (stereo not drawn) stands 8.85%; under `O=C(c1ccco1)N1CCN(Cc2cc(=O)c(OCc3cccc(Cl)c3)co2)CC1`, -22.1%.
As for `O=C(CSc1nnc(COc2ccccc2)o1)N1CCCCC1`, the figure is 8.16%; as for `CC1CCN(C(=O)C2CCN(CCCc3ccccc3)CC2)CC1.O=C(O)C(=O)O`, -23.5%; as for `Cc1nnc(N/N=C/c2ccco2)n1N`, 6.72%.
As for `O=C(O)c1ccc(CSc2nc3ccccc3c(=O)n2-c2ccccc2)cc1`, the figure is 9.54%.
In the case of `CCOC(=O)c1nn(-c2ccc(F)cc2)c(=O)c2c(N)scc12`, the “hERG current change (%, negative = inhibition) at 1uM” value is 11.3%.
Regarding `O=C(CNCc1ccccc1)Nc1ccc(F)cc1`, the “hERG current change (%, negative = inhibition) at 1uM” value was -3.84%.
Under `CC(NC(=O)c1ccc(F)cc1)C(=O)NC1=NCCS1` (stereo not drawn) stands 15.3%; under `COc1ccc(NC(=O)CSc2ccccn2)cc1OC`, 10.2%.
Under `O=C(Cn1ncc2c(=O)oc3ccccc3c21)N(Cc1ccco1)C1CCCCC1` stands 6.15%; under `COc1ccc(CNc2nc3nc(C)c(Cl)c(=O)n3[nH]2)cc1`, 9.89%.
Under `COc1ccc([C@@H]2[C@@H]3C(=O)N(C(C)(C)C)C(=O)[C@@H]3[C@]3(Cc4ccccc4)C(=O)N(c4cccc(F)c4)C(=O)N23)cc1` stands 6.77%; under `CCOc1ccccc1CN1CCN(Cc2cc(=O)c3ccccc3[nH]2)CC1CCO` (stereo not drawn), -29.6%; under `COc1cc(OC)c(C(=O)Nc2ccncc2)cc1OC`, 17.5%.
`O=c1c2ccccc2nc2n1CCCCN2`: the “hERG current change (%, negative = inhibition) at 1uM” value is listed as 16.6%.
As for `COc1cccc(-n2nnc3c(=O)n(CC(=O)N4CCCc5ccccc54)cnc32)c1`, the figure is -6.28%.
Under `Cn1ncc(Cl)c1C(=O)Nc1cccc(Cl)c1` stands -0.311%; under `Cc1n[nH]c(C)c1CCN(C)Cc1cn(C)nc1-c1ccc2c(c1)OCCO2`, -0.959%.
Under `Cc1sc2nc(CN3CCOCC3)[nH]c(=S)c2c1C` stands -10.4%; under `CCC(=O)Nc1cc(C(=O)OCC(=O)c2ccc(Cl)cc2Cl)ccc1C`, 4.84%; under `CN(C)C=O.Cc1cc(C)nc(NC(=O)CSc2nc3cc(Cl)ccc3s2)n1`, -2.11%.
Take `COc1ccc(Nc2nc(CC(C)=O)ns2)cc1`: the “hERG current change (%, negative = inhibition) at 1uM” value stood at 15.9%.
For the compound `Cc1ccc2occ(/C=N/NC(=O)c3ccc(O)cc3)c(=O)c2c1`, the “hERG current change (%, negative = inhibition) at 1uM” value is -5.24%.
Under `O=C1CC(c2ccc(S(=O)(=O)N3CCN(c4ccccc4)CC3)cc2)CN1` (stereo not drawn) stands 11.1%; under `Cc1nn(-c2ccccc2)nc1CNC(=O)C1CC1`, 14.4%.
Under `CCOC(=O)Cn1c2[n+](c3ccccc31)CC(O)CS2.[I-]` (stereo not drawn) stands 13.6%; under `COc1ccc(CNS(=O)(=O)c2ccc3c(c2)N(C(C)=O)CCO3)cc1`, 8.62%; under `COC(=O)c1c(NC(=O)CN2CCC3(O)CCCCC3C2c2cc(OC)ccc2OC)sc(C)c1C` (stereo not drawn), 10.6%.
Regarding `CC(C)c1ccc(/C=N/NC(=O)C2CCCC2)cc1`, the “hERG current change (%, negative = inhibition) at 1uM” value is given as 10.2%.
Under `CCc1nc2c(cnn2-c2ccc(Cl)cc2)c(=O)n1-c1ccc2c(c1)OCCO2` stands 7.16%; under `Cc1cc(C)n(C(=O)c2ccccc2[N+](=O)[O-])n1`, 20.1%.
As for `COc1ccc(N(CC(=O)Nc2ccccc2SC)S(C)(=O)=O)cc1OC`, the figure is 7.56%; as for `CCc1sc(C(=O)NCCc2ccc(S(N)(=O)=O)cc2)cc1Br`, 11.3%; as for `C[N+](C)(C)CC(O)CC(=O)O.[Cl-]` (stereo not drawn), 2.32%.
Under `CC(C)C(=O)N1CCC(n2nccc2NC(=O)CCc2ccccc2)CC1` stands 7.27%; under `COc1ccc(Nc2nccc(N(C)C)c2C#N)cc1`, 14.5%; under `CC1=C(CC[C@@H](C)CO)OC2CC3C4CCC5CC(O)CCC5(C)C4CC(=O)C3(C)C12` (stereo partly drawn), 9.85%.
In the case of `COc1ccc([C@H]2CC(=O)C=C(c3ccc4c(c3)OCO4)C2)cc1`, the “hERG current change (%, negative = inhibition) at 1uM” value is 3.92%.
